# Measurements as given in PMC6451091.
# The other results are listed elsewhere or left out. For part of these data: At the low end of the ranking the order means little. For part of these data: The protein was read in a cell extract, so binding may be indirect.
# Columns and labels:
# Conditions in all cases: 20 mM HEPES pH 7.9, 100 mM NaCl, 1 mM DTT, 0.2 mg/mL BSA, 0.02% Triton X-100, 2% milk, 0.4 mg/mL salmon testes DNA; 1 h; temperature not stated; high values mean tight binding; double strand, one strand shown; sequences stand for … in GCCTAGCAC…GTGCTAGGTCTTGATTCGCTTGACGCTGCTG
# PU.1 (IVT) = PU.1 (IVT) (UniProt P17947); test: protein-binding microarray (PBM)
# [1] = biological target: PU.1 (endogenous, THP-1 nuclear extract) (UniProt P17947); test: nuclear extract protein-binding microarray (nextPBM)
# [2] = biological target: T1, FLI1 (endogenous, THP-1 nuclear extract) (UniProt Q01543); test: as above
# T1 sequence: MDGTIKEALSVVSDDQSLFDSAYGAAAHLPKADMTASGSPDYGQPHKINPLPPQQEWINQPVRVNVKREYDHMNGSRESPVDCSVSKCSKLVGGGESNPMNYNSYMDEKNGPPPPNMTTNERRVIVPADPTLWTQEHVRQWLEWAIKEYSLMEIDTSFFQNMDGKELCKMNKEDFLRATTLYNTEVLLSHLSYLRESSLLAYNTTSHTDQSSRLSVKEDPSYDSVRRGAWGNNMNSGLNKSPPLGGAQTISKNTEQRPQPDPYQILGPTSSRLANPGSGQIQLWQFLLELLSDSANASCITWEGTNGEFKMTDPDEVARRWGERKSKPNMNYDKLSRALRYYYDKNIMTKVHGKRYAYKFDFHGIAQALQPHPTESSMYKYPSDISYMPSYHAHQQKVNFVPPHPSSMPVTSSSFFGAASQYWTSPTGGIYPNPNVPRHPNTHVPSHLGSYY
Sequence,binding signal (PU.1 (IVT)),binding signal [1],binding signal [2]
TGAAAGAGGAAATGAATCAC,4.38 z-score,4.68 z-score,3.04 z-score
AAATAAAGGAACTGCTTTAA,3.07 z-score,3.01 z-score,1.02 z-score
GAAAAGAGGAAGTCACATTG,8.32 z-score,7.37 z-score,4.21 z-score
TCAAGGAGGAAGTGCCAGAA,5.11 z-score,5.29 z-score,2.53 z-score
TGAAAGAGGAAGTGGAACCA,7.75 z-score,7.45 z-score,3.97 z-score
AAAATCAGGAACTGGGTGGA,3.7 z-score,4.16 z-score,1.46 z-score
CGAAAGGGGTAGTGCTAAAC,1.12 z-score,1.09 z-score,-0.105 z-score
AAAAACAGGAAGTGGGGTGC,7.66 z-score,7.16 z-score,5.26 z-score
GGAAAGAGGAACAGAGTAGG,3.92 z-score,4.84 z-score,1.53 z-score
AAAAAAAGGAGCTGGCTAGA,-0.309 z-score,-0.0278 z-score,-0.433 z-score
ACAAAGAGGAAGTGAAGGGA,6.77 z-score,6.66 z-score,3.63 z-score
AACTAGAGGAAGTGAAGGAA,4.88 z-score,4.66 z-score,3.59 z-score
CTGCTGAGGAAGTGAGAGAC,2.48 z-score,2.83 z-score,1.61 z-score
AAAAGGAGGAAGTGGTTACA,6.37 z-score,6.77 z-score,3.21 z-score
GACAGGAGGAAGTGTGAACC,3.49 z-score,3.24 z-score,2.31 z-score
TGAAATAGGAAGTGCAACCA,3.78 z-score,4.33 z-score,2.25 z-score
CTTTAGAGGAAGTGTGAGCT,4.17 z-score,4.75 z-score,2.32 z-score
TTGGAGAGGAAGTGATTCAA,4.24 z-score,4.19 z-score,3.02 z-score
ATAAAGAGGAAGCCTGTGTG,3.76 z-score,3.92 z-score,1.92 z-score
CTGAAGGGGAAGTGGTACTT,4.45 z-score,5.32 z-score,2.38 z-score
GGGAGGAGGAAGTGCTCTTG,4.7 z-score,5.14 z-score,2.87 z-score
